Screen size: about 2,800 compounds; fewer than 10 were called active. Calls come from the whole dose curve; as a rule, active = well fitted curve in the direction sought with a large enough effect; inconclusive = small, poorly fitted or top-dose-only effect, or another doubt; inactive = no such curve, though single readings can be large or run the other way. The list shows a part of the results.
What follows are compounds tested against Metallo-beta-lactamase type 2 (Klebsiella pneumoniae) (UniProt C7C422) (assay: qHTS to identify inhibitors of the New Delhi Metallo-beta-lactamase (NDM): Meropenem screen against the machine-based learning selections.). Details: Purified NDM-1, meropenem hydrolysis, absorbance 300 nm; at 38.4 µM (top of the series) unless noted.
UniProt C7C422, sequence (C7C422 whole entry, looked up): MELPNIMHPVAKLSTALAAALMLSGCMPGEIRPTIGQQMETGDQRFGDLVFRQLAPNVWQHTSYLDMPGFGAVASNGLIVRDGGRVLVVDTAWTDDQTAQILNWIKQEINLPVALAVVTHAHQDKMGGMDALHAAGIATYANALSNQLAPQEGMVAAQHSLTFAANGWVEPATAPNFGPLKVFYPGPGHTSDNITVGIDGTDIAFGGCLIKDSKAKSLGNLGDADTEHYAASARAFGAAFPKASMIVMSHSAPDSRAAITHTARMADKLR
How it was run: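 Hydrolysis by 2 nM NDM-1 was followed by absorbance after >30 min compound preincubation in HEPES pH 7.0 buffer with 1 uM Zn2SO4. For nitrocefin (16.7 uM, 15 min, 485 nm) and meropenem (50 uM, 30 min, 300 nm), each substrate ran on separate plates.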
Note: % of control where 0% means no effect.

Activity change, negative = inhibition, inactive:
O=C1CCCCC(CNC(=O)c2cc(F)ccc2F)N1 (configuration not stated) -1.57%
CCCCNC(=O)c1cccc(CN2C(=O)CC(c3ccccc3C)C(C(=O)OCC)=C2C)c1 (configuration not stated) 5.31%
CN(Cc1cccnc1)c1ccc2ncc(Nc3cccc(N[S+](C)(=O)[O-])c3)n2n1 72.1% [at 57.5 µM]
CC(=O)N[C@H]1CC[C@]2(C)CC[C@@H](C(C)C(=O)NC3CCCC3)[C@H](O)[C@H]2[C@@H]1C (some centres not stated) 0.768% [at 57.5 µM]
O=C(COc1ccccc1Cl)N1CCCC(O)(CN2CCCC2)C1 (configuration not stated) -0.507%
O=C(Cn1nccn1)NC1CC(c2cc(N3CCC(O)C3)ncn2)C1 (configuration not stated) 3.33%
CCCN1C(=O)Cc2ccccc2C1C(=O)NCc1cccc(C)c1 (configuration not stated) 0.922%
C=CCN(Cc1cnc(-c2cccc(C)c2)nc1)Cc1ccccn1 18%
CCOCc1nc(C2CCCN(C(=O)c3ccc(C)cc3)C2)no1 (configuration not stated) -0.353%
CC(C)(C)c1nnc([C@H]2CCN(Cc3ccco3)C2)o1 24.3% [at 76.7 µM]
Cc1noc2c(-c3cccc(CO)c3)cc(-c3ccc(F)cc3)nc12 -0.0708% [at 57.5 µM]
Cc1ccc2[nH]c(CCCn3cc(-c4nccn4C)nn3)nc2c1C 0.719%
CC(C)C1c2nccn2CCCN1C(=O)c1ccc(Cn2cncn2)o1 (configuration not stated) 3.75%
CCC[C@H]1C[C@H]1C(=O)N1CCC2(CCC(=O)N(CC(N)=O)C2)CC1 -0.108%
CCc1cc(N2CCOC(c3ccc4cc(OC)ccc4c3)C2)nc(C)n1 (configuration not stated) 0.291%
CN(Cc1ccccc1)Cc1cn([C@H]2CO[C@H]3[C@@H]2OC[C@@H]3NC(=O)NCc2ccccc2)nn1 -1.86%
CC1=C[C@@H](CNC(=O)Cc2ccccc2)[C@H](C(C)C)C[C@H]1Cc1nc2ccncc2[nH]1 49.5% [at 57.5 µM]
CN(C)c1ccc(NC(=S)N[C@H]2CO[C@H]3[C@@H]2OC[C@H]3OC(=O)Nc2cccc3ccccc23)cc1 0.89%
CCCC1=Nc2cc(C(=O)NCCc3ccc(OC)c(OC)c3)ccc2Sc2ccccc21 2.09%
CN(Cc1cc(C[C@@H]2C[C@H](NC(=O)COc3ccccc3)C2(C)C)no1)c1ccccc1 2.11% [at 57.5 µM]
COc1ccc(CN2C(=O)COC[C@@H]2[C@H](O)c2ccc(NC(=O)CC(C)(C)C)cc2)cc1 -0.585%
CCN1C(=O)CCc2cc(NC(=O)c3ccc(C(C)C)cc3)ccc21 0.804%
NC(=O)c1nc(CNC(=O)CC(c2ccccc2)c2cccc(Cl)c2)no1 (configuration not stated) -2.99%
CC(C(=O)N1CCCC1)N1CCC2(CCC(=O)N(CCO)C2)CC1 (configuration not stated) -3.33%
OCc1ccc(CN2C[C@H](O)C[C@H]2c2nc(-c3ccc(F)cc3)no2)o1 12.8% [at 57.5 µM]
Cc1ccc2c(C)c(C(=O)N3CC(OCc4ccccc4F)C3)oc2c1 4.72%
CNS(=O)(=O)c1ccc(C2CC(=O)Nc3cc(O)c(OC)cc32)cc1 (configuration not stated) -1.2%
COCc1cn(C[C@H]2C[C@@H](NCc3nccs3)[C@H](O)[C@@H]2O)nn1 47.1%
Cc1ccc(S(=O)(=O)Cc2noc([C@@H]3C[C@@H](O)CN3Cc3ccc(S(C)(=O)=O)cc3)n2)cc1 -3.18%
O=C1Nc2ccccc2CC12CCN(Cc1cccnc1)CC2 1.81% [at 57.5 µM]
CC(=O)N[C@@H]1C[C@H](Cc2ccccc2)O[C@H](c2c(C)nc3sccn23)C1 -0.712%
CCOC(=O)c1cccc(NC(=O)O[C@@H]2CO[C@H]3[C@@H]2OC[C@@H]3n2nnnc2SC2CCCC2)c1 1.08%
COc1ccc(CN2C=C(C(=O)OCc3noc(-c4cccc(OC)c4)n3)C(C)=NS2(=O)=O)cc1 1.39%
O=C(NCCc1cnc[nH]1)C1CCN(C2CCCCC2)CC1 0.443%
O=C(Nc1ccsc1)N[C@H]1C[C@H]2C(=O)NC[C@@H](CCC(=O)N3CCCCC3)N2C1 6.97% [at 57.5 µM]
Cc1noc([C@@H](C)NC(=O)Nc2cccnc2)c1C(=O)O 49.7% [at 57.5 µM]
COC(=O)[C@@H]1Cc2nc[nH]c2CN1C(C)C 14.4% [at 76.7 µM]
OC(CCc1ccccc1)C1CCN(Cc2nc(-c3ccccn3)no2)CC1 (configuration not stated) 0.701%
CN(C)S(=O)(=O)CCCN1CC[C@@H](NC(=O)c2ccccn2)[C@H](O)C1 1.55%
COc1cncc([C@@H](NC(=O)Cc2cn3ccsc3n2)C2CC(O)C2)c1 (some centres not stated) 9.51%
O=C(Nc1ccc(Oc2ccccc2)cc1)N[C@H]1CO[C@H]2[C@@H]1OC[C@H]2OC(=O)Nc1cccc(C(F)(F)F)c1 1.79%
Cc1ccc(S(=O)(=O)N[C@H]2CO[C@H]3[C@@H]2OC[C@H]3OCC(N)=O)cc1 0.722% [at 57.5 µM]
CC[C@H]1CN(C(=O)C(C)(C)C)CC[C@H]1CC(=O)NCCSC 1.03% [at 57.5 µM]
Cn1ccnc1CN[C@@H]1C[C@H](CO)[C@@H](O)[C@H]1O 0.35% [at 76.7 µM]
CC(C)c1ccc(C(=O)N2CCCC[C@H](N(C)C)C2)c(=O)n1C 0.699%
CC(=O)Nc1cccc(-c2ccc3ncn(-c4cccnc4)c(=O)c3n2)c1 11.4% [at 57.5 µM]
Oc1ccccc1CN1CCNc2cnc(-c3ccccc3)cc2C1 10.3% [at 57.5 µM]
COc1ccc(C(=O)N[C@H]2C[C@H]3C(=O)Nc4ccccc4C(=O)N3C2)cc1 2.49% [at 57.5 µM]
O=C(Cc1ccncc1)N1CCC2(CC1)NCCc1c2[nH]c2ccccc12 0.152%
O=C(N[C@H](C1CCNCC1)C1CC(O)C1)c1ccc2nccnc2c1 (some centres not stated) 59.6%
O=C(c1ccccc1)N1C[C@@H]2OCC(=O)N(c3ccccc3)[C@@H]2C1 2.74% [at 57.5 µM]
O=C1Nc2ccc(-c3cccc(C(F)(F)F)c3)cc2C(=O)N2CCN(C(=O)[C@@H]3CSCN3)C[C@H]12 -3.56%
O=C(CN1CC2CC(C1)[C@H]1CCCC(=O)N1C2)Nc1ccccc1 (some centres not stated) -1.32%
CCOC(=O)c1ccc(N2C(=O)[C@@H]3Cc4nc[nH]c4CN3C2=O)cc1 -1.18% [at 57.5 µM]
Cc1cc(CN2CCC(CO)(Cc3ccccc3Cl)CC2)cc(C)c1O 0.408%
COc1ccc(C(=O)NCc2nnc3ccc(-c4ccccc4)nn23)c(OC)n1 8.31%
CC(=O)N1CCN(C(=O)C[C@@H]2C[C@@H](C(C)C)[C@H](CNC(=O)Nc3cccc(F)c3)C=C2C)CC1 0.0244%
O=C(NC1CCCCC1)N[C@H]1CO[C@H]2[C@@H]1OC[C@@H]2n1cc(-c2ccccc2)nn1 0.505% [at 57.5 µM]
COC(=O)[C@@H]1Cc2ncn(C)c2CN1S(=O)(=O)c1cccc(C(F)(F)F)c1 38.1% [at 57.5 µM]
O=[S+]([O-])(NCC1CN(Cc2ccc(O)cc2)CC12CN(c1ccccc1)C2)c1ccccc1 (configuration not stated) -0.105%
CCCCCC(=O)N[C@H]1C[C@@H](Cc2cc(COc3ccccc3)on2)C1(C)C -0.284% [at 57.5 µM]
COc1ccc([C@@H](NC(=O)Cc2c(F)cccc2Cl)C2CC(O)C2)cn1 (some centres not stated) 0.991%
OC(c1nc(Nc2ccc(Oc3ccccc3)cc2)n[nH]1)C1CC1 (configuration not stated) 1.37% [at 57.5 µM]
CCOc1ccccc1-c1nc(C2CC(=O)N(c3ccc(C)cc3)C2)no1 (configuration not stated) -0.61%
CN(Cc1ccccc1)Cc1cc(C[C@@H]2CC[C@H](O)[C@@H](CNC(=O)Nc3ccccc3)O2)no1 3.28%
CCCc1cc(C(=O)N[C@@H]2COCC[C@H]2Oc2ccc(C(=O)O)cc2)n[nH]1 -1.31%
c1csc(-c2[nH]ncc2CNC2CCC3(CCNCC3)CC2)c1 26.7%
CCn1ncc(NC(=O)Cn2ncc3cc(-c4ccc(C(=O)N(C)C)cc4)ccc32)n1 3.65%
CC(C)CN[C@H]1CO[C@H]2[C@@H]1OC[C@@H]2Nc1nccc(C(C)(C)C)n1 -0.944% [at 57.5 µM]
COCCNc1nc2cc(C(=O)N3CC[C@H](CO)[C@@H](O)C3)ccc2n1C 0.0233%
CCN(CC)C(=O)[C@@H]1C[C@H](N)CN1C(=O)c1cc2ccccc2n(C)c1=O 1.94%
Cn1ccnc1CNC[C@H]1Cn2c(-c3ccccc3)cnc2CO1 52.1% [at 57.5 µM]
CC(C)C1CN(C(=O)c2ccccc2-c2ncc[nH]2)CCC(=O)N1CC1CC1 (configuration not stated) -1.59%
CC[C@H]1CN(C(C)=O)CC[C@H]1CC(=O)Nc1ccccc1 -2.16% [at 76.7 µM]
CC1=C[C@@H](CNC(=O)c2ccc(F)cc2)[C@H](C(C)C)C[C@H]1CC(=O)N1CCN(C)CC1 -2.02% [at 57.5 µM]
O=C1Nc2ccc(/C=C/c3ccccc3)cc2C(=O)N2CC[C@H](NS(=O)(=O)c3cccs3)[C@@H]12 3.88%
O=C(O)c1cccc(CN2CCN(c3ccc4nccn4n3)CC2)n1 52.5%

Source: PubChem BioAssay AID1794842 (National Center for Advancing Translational Sciences (NCATS), 2023)
